At least one peptide structure holds a part that was inferred or is arguable (an end, a ring closure or a residue). For at least one compound, name, drawing or mass did not settle the structure. Numbered stars: 1 amine (or outer) side, 2 acyl side, 3 side chain; on linkers, the order of the positions; unused ones are H or OH. Bridge positions count the residues as written; N and C are the ends. Square brackets hold non-standard residues; d marks the D form. Peptide text beside a SMILES is read from it. * marks the point of attachment. X2 = O=C(O)CCCCCCCCCCCCCCCCCCC(=O)NCCOCCOCCOCCOCCOCCOCCOCCOCC(=O)*; C20 diacid = O=C(O)CCCCCCCCCCCCCCCCCCC(=O)*; γGlu = O=C(O)[C@H](CCC(=O)[*:2])N[*:1]; Hyp = O=C(O)[C@@H]1C[C@@H](O)CN1; Trx = NC[C@H]1CC[C@H](C(=O)O)CC1; AEEA = NCCOCCOCC(=O)O; Inp = O=C(O)C1CCNCC1
Target: T1, human amylin receptor (Homo sapiens, UniProt O60896+P30988)
T1 construct: host or cells: CHO-K1/Ga15/AMY3 cells, further stably transfected with a CRE-luciferase plasmid
T1 sequence (P30988 25-474): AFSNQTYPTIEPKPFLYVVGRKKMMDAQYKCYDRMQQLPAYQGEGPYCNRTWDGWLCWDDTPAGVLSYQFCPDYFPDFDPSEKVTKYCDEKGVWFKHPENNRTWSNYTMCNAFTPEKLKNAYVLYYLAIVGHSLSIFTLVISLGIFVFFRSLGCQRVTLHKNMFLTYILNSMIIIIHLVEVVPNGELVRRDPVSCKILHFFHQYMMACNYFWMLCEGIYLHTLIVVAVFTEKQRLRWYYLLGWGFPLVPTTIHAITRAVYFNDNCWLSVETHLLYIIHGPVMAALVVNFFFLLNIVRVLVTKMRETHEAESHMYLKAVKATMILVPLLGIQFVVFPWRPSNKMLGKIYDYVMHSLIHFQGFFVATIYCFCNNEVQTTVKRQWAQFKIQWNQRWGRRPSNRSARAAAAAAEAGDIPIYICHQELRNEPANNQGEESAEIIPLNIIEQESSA
T1 sequence (O60896 24-148 partner): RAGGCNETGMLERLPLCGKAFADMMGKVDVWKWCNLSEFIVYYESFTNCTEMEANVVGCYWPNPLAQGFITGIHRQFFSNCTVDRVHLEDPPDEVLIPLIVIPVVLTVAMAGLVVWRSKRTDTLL
Assay: Luciferase assay of amylin derivatives in amylin receptor/CRE-luc CHO cell line
Format: cell-based
Conditions: CHO-K1/Ga15/AMY3 CRE-luc cells, 24 hours incubation, F12 medium containing 10% FBS

| SMILES | EC50 |
| --- | --- |
| CC[C@H](C)[C@H](NC(=O)[C@@H]1CCCN1C(=O)[C@H](CCCCN)NC(=O)[C@H](CC(C)C)NC(=O)[C@H](CC(N)=O)NC(=O)[C@H](CC(N)=O)NC(=O)[C@H](CO)NC(=O)[C@H](CO)NC(=O)[C@H](Cc1c[nH]cn1)NC(=O)[C@H](CCCNC(=N)N)NC(=O)[C@H](CC(C)C)NC(=O)[C@H](Cc1ccccc1)NC(=O)[C@H](CC(=O)O)NC(=O)[C@H](C)NC(=O)[C@H](CC(C)C)NC(=O)[C@H](CCCNC(=N)N)NC(=O)[C@H](CCC(N)=O)NC(=O)[C@@H](NC(=O)[C@H](C)NC(=O)[C@@H]1CSSC[C@H](NC(=O)[C@H](CCCCN)NC(=O)[C@H]2CC[C@H](CNC(=O)COCCOCCNC(=O)COCCOCCNC(=O)CCCCCCCCCCCCCCCCCCC(=O)O)CC2)C(=O)N[C@@H](CC(N)=O)C(=O)N[C@@H]([C@@H](C)O)C(=O)N[C@@H](C)C(=O)N[C@@H]([C@@H](C)O)C(=O)N1)[C@@H](C)O)C(=O)N[C@@H](CC(C)C)C(=O)N1CCC[C@H]1C(=O)N1CCC[C@H]1C(=O)N[C@H](C(=O)N[C@@H](CC(N)=O)C(=O)N[C@H](C(=O)NCC(=O)N[C@@H](CO)C(=O)N[C@@H](CC(N)=O)C(=O)N[C@H](C(=O)N1C[C@H](O)C[C@H]1C(N)=O)[C@@H](C)O)C(C)C)[C@@H](C)O [PD178] ({C20 diacid-AEEA-AEEA-Trx}-KCNTATCATQRLADFLRHSSNNLKPILPPTNVGSNT[Hyp]-NH2; disulfide 2-7) | 0.017 nM |
| CC[C@H](C)[C@H](NC(=O)[C@@H]1CCCN1C(=O)[C@H](CCCCN)NC(=O)[C@H](CC(C)C)NC(=O)[C@H](CC(N)=O)NC(=O)[C@H](CC(N)=O)NC(=O)[C@H](CO)NC(=O)[C@H](CO)NC(=O)[C@H](Cc1c[nH]cn1)NC(=O)[C@H](CCCNC(=N)N)NC(=O)[C@H](CC(C)C)NC(=O)[C@H](Cc1ccccc1)NC(=O)[C@H](CC(=O)O)NC(=O)[C@H](C)NC(=O)[C@H](CC(C)C)NC(=O)[C@H](CCCNC(=N)N)NC(=O)[C@H](CCC(N)=O)NC(=O)[C@@H](NC(=O)[C@H](C)NC(=O)[C@@H]1CSSC[C@H](NC(=O)[C@H](CCCCN)NC(=O)COCCOCCNC(=O)COCCOCCNC(=O)[C@H](CC(=O)O)NC(=O)CCCCCCCCCCCCCCCCCCC(=O)O)C(=O)N[C@@H](CC(N)=O)C(=O)N[C@@H]([C@@H](C)O)C(=O)N[C@@H](C)C(=O)N[C@@H]([C@@H](C)O)C(=O)N1)[C@@H](C)O)C(=O)N[C@@H](CC(C)C)C(=O)N1CCC[C@H]1C(=O)N1CCC[C@H]1C(=O)N[C@H](C(=O)N[C@@H](CC(N)=O)C(=O)N[C@H](C(=O)NCC(=O)N[C@@H](CO)C(=O)N[C@@H](CC(N)=O)C(=O)N[C@H](C(=O)N1C[C@H](O)C[C@H]1C(N)=O)[C@@H](C)O)C(C)C)[C@@H](C)O [PD181] ({C20 diacid}-D[AEEA][AEEA]KCNTATCATQRLADFLRHSSNNLKPILPPTNVGSNT[Hyp]-NH2; disulfide 5-10 (inferred)) | 0.022 nM |
| CC[C@H](C)[C@H](NC(=O)[C@@H]1CCCN1C(=O)[C@H](CCCCN)NC(=O)[C@H](CC(C)C)NC(=O)[C@H](CC(N)=O)NC(=O)[C@H](CC(N)=O)NC(=O)[C@H](CO)NC(=O)[C@H](CO)NC(=O)[C@H](Cc1c[nH]cn1)NC(=O)[C@H](CCCNC(=N)N)NC(=O)[C@H](CC(C)C)NC(=O)[C@H](Cc1ccccc1)NC(=O)[C@H](CC(=O)O)NC(=O)[C@H](C)NC(=O)[C@H](CC(C)C)NC(=O)[C@H](CCCNC(=N)N)NC(=O)[C@H](CCC(N)=O)NC(=O)[C@@H](NC(=O)[C@H](C)NC(=O)[C@@H]1CSSC[C@H](NC(=O)[C@H](CCCCN)NC(=O)CC[C@H](NC(=O)COCCOCCOCCOCCOCCOCCOCCOCCNC(=O)CCCCCCCCCCCCCCCCCCC(=O)O)C(=O)O)C(=O)N[C@@H](CC(N)=O)C(=O)N[C@@H]([C@@H](C)O)C(=O)N[C@@H](C)C(=O)N[C@@H]([C@@H](C)O)C(=O)N1)[C@@H](C)O)C(=O)N[C@@H](CC(C)C)C(=O)N1CCC[C@H]1C(=O)N1CCC[C@H]1C(=O)N[C@H](C(=O)N[C@@H](CC(N)=O)C(=O)N[C@H](C(=O)NCC(=O)N[C@@H](CO)C(=O)N[C@@H](CC(N)=O)C(=O)N[C@H](C(=O)N1C[C@H](O)C[C@H]1C(N)=O)[C@@H](C)O)C(C)C)[C@@H](C)O [PD186] ({X2-γGlu}-KCNTATCATQRLADFLRHSSNNLKPILPPTNVGSNT[Hyp]-NH2; disulfide 2-7) | 0.052 nM |
| CC[C@H](C)[C@H](NC(=O)[C@@H]1CCCN1C(=O)[C@H](CCCCN)NC(=O)[C@H](CC(C)C)NC(=O)[C@H](CC(N)=O)NC(=O)[C@H](CC(N)=O)NC(=O)[C@H](CO)NC(=O)[C@H](CO)NC(=O)[C@H](Cc1c[nH]cn1)NC(=O)[C@H](CCCNC(=N)N)NC(=O)[C@H](CC(C)C)NC(=O)[C@H](Cc1ccccc1)NC(=O)[C@H](CC(=O)O)NC(=O)[C@H](C)NC(=O)[C@H](CC(C)C)NC(=O)[C@H](CCCNC(=N)N)NC(=O)[C@H](CCC(N)=O)NC(=O)[C@@H](NC(=O)[C@H](C)NC(=O)[C@@H]1CSSC[C@H](NC(=O)[C@H](CCCCN)NC(=O)COCCOCCNC(=O)COCCOCCNC(=O)[C@H]2CC[C@H](CNC(=O)CCCCCCCCCCCCCCCCCCC(=O)O)CC2)C(=O)N[C@@H](CC(N)=O)C(=O)N[C@@H]([C@@H](C)O)C(=O)N[C@@H](C)C(=O)N[C@@H]([C@@H](C)O)C(=O)N1)[C@@H](C)O)C(=O)N[C@@H](CC(C)C)C(=O)N1CCC[C@H]1C(=O)N1CCC[C@H]1C(=O)N[C@H](C(=O)N[C@@H](CC(N)=O)C(=O)N[C@H](C(=O)NCC(=O)N[C@@H](CO)C(=O)N[C@@H](CC(N)=O)C(=O)N[C@H](C(=O)N1CCC[C@H]1C(N)=O)[C@@H](C)O)C(C)C)[C@@H](C)O [PD189] ({C20 diacid-Trx-AEEA-AEEA}-KCNTATCATQRLADFLRHSSNNLKPILPPTNVGSNTP-NH2; disulfide 2-7 (inferred)) | 0.029 nM |
| CC[C@H](C)[C@H](NC(=O)[C@@H]1CCCN1C(=O)[C@H](CCCCN)NC(=O)[C@H](CC(C)C)NC(=O)[C@H](CC(N)=O)NC(=O)[C@H](CC(N)=O)NC(=O)[C@H](CO)NC(=O)[C@H](CO)NC(=O)[C@H](Cc1c[nH]cn1)NC(=O)[C@H](CCCNC(=N)N)NC(=O)[C@H](CC(C)C)NC(=O)[C@H](Cc1ccccc1)NC(=O)[C@H](CC(=O)O)NC(=O)[C@H](C)NC(=O)[C@H](CC(C)C)NC(=O)[C@H](CCCNC(=N)N)NC(=O)[C@H](CCC(N)=O)NC(=O)[C@@H](NC(=O)[C@H](C)NC(=O)[C@@H]1CSSC[C@H](NC(=O)[C@H](CCCCN)NC(=O)[C@H]2CC[C@H](CNC(=O)COCCOCCNC(=O)COCCOCCNC(=O)CCCCCCCCCCCCCCCCCCC(=O)O)CC2)C(=O)N[C@@H](CC(N)=O)C(=O)N[C@@H]([C@@H](C)O)C(=O)N[C@@H](C)C(=O)N[C@@H]([C@@H](C)O)C(=O)N1)[C@@H](C)O)C(=O)N[C@@H](CC(C)C)C(=O)N1CCC[C@H]1C(=O)N1CCC[C@H]1C(=O)N[C@H](C(=O)N[C@@H](CC(N)=O)C(=O)N[C@H](C(=O)NCC(=O)N[C@@H](CO)C(=O)N[C@@H](CC(N)=O)C(=O)N[C@H](C(=O)N1CCC[C@H]1C(N)=O)[C@@H](C)O)C(C)C)[C@@H](C)O [PD190] ({C20 diacid-AEEA-AEEA-Trx}-KCNTATCATQRLADFLRHSSNNLKPILPPTNVGSNTP-NH2; disulfide 2-7) | 0.017 nM |
| CC[C@H](C)[C@H](NC(=O)[C@@H]1CCCN1C(=O)[C@H](CCCCN)NC(=O)[C@H](CC(C)C)NC(=O)[C@H](CC(N)=O)NC(=O)[C@H](CC(N)=O)NC(=O)[C@H](CO)NC(=O)[C@H](CO)NC(=O)[C@H](Cc1c[nH]cn1)NC(=O)[C@H](CCCNC(=N)N)NC(=O)[C@H](CC(C)C)NC(=O)[C@H](Cc1ccccc1)NC(=O)[C@H](CC(=O)O)NC(=O)[C@H](C)NC(=O)[C@H](CC(C)C)NC(=O)[C@H](CCCNC(=N)N)NC(=O)[C@H](CCC(N)=O)NC(=O)[C@@H](NC(=O)[C@H](C)NC(=O)[C@@H]1CSSC[C@H](NC(=O)[C@H](CCCCN)NC(=O)COCCOCCNC(=O)COCCOCCNC(=O)C2CCN(C(=O)CCCCCCCCCCCCCCCCCCC(=O)O)CC2)C(=O)N[C@@H](CC(N)=O)C(=O)N[C@@H]([C@@H](C)O)C(=O)N[C@@H](C)C(=O)N[C@@H]([C@@H](C)O)C(=O)N1)[C@@H](C)O)C(=O)N[C@@H](CC(C)C)C(=O)N1CCC[C@H]1C(=O)N1CCC[C@H]1C(=O)N[C@H](C(=O)N[C@@H](CC(N)=O)C(=O)N[C@H](C(=O)NCC(=O)N[C@@H](CO)C(=O)N[C@@H](CC(N)=O)C(=O)N[C@H](C(=O)N1CCC[C@H]1C(N)=O)[C@@H](C)O)C(C)C)[C@@H](C)O [PD191] ({C20 diacid-Inp-AEEA-AEEA}-KCNTATCATQRLADFLRHSSNNLKPILPPTNVGSNTP-NH2; disulfide 2-7 (inferred)) | 0.061 nM |

From patent publication US20260166128A1, “HUMAN AMYLIN ANALOG, AND DERIVATIVE THEREOF AND USE THEREOF” (priority 2022, published 2026)
